Reference: publication PMC4336329 (PLoS ONE, 2015)
The whole screen tested about 310,000 compounds, of which about 14,000 (4.5%) showed an effect of 50% or more. Effects have a minus sign here. This is one part of the list.

What follows are molecules tested against human ether-à-go-go-related gene (hERG) potassium channel (human, UniProt Q12809) (assay: primary screen, population patch clamp on CHO cells stably expressing hERG).
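Also: peak tail current of the secondary pulse compared with the same well before compound.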

Sequence of human ether-à-go-go-related gene (hERG) potassium channel (Q12809 whole entry, looked up): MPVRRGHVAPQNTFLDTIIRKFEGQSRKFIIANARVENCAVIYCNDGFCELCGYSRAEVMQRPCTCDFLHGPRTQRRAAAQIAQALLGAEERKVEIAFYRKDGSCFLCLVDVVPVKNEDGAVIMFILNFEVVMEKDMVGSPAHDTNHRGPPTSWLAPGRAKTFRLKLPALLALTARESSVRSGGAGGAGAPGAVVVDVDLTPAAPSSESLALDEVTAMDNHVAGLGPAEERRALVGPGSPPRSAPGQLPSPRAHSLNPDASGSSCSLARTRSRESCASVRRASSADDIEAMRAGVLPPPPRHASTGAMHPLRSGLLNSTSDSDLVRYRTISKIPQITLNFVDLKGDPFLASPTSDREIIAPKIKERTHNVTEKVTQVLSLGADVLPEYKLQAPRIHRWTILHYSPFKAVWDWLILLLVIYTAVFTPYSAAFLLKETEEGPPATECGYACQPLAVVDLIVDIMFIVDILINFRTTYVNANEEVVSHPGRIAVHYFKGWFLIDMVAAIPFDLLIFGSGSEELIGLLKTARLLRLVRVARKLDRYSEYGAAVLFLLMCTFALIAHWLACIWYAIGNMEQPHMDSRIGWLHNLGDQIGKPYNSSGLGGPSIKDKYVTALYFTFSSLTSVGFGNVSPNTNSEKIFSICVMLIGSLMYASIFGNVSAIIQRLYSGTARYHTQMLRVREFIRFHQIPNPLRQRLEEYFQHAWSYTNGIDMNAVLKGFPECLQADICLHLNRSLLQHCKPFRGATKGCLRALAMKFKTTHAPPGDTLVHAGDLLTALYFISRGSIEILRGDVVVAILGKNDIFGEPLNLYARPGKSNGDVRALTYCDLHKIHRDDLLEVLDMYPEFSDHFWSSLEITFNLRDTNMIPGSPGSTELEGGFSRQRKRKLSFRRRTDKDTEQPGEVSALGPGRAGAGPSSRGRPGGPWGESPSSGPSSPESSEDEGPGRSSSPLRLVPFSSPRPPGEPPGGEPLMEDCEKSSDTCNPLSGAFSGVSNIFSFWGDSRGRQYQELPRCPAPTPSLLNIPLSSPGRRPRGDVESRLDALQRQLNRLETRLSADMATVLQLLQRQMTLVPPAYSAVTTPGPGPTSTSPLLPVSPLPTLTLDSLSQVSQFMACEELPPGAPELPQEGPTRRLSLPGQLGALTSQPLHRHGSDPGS

| Structure (SMILES) | hERG current change (%, negative = inhibition) at 10uM |
| --- | --- |
| C=CCN(CC=C)C(=O)c1cccc(OC2CCN(CC(C)(C)C)CC2)c1 | 2.48% |
| O=C(NC(c1ccc(Cl)cc1)c1cc(Cl)c2cccnc2c1O)c1cccnc1 (stereo not drawn) | -15.3% |
| Cc1csc2nc3ccccc3c(=O)n12 | 6.97% |
| Oc1cccc(NC(=S)Nc2ccccc2)c1 | 17.8% |
| CC(C)n1c(=S)[nH]c2scc(-c3cccs3)c2c1=O | 17.1% |
| O=[N+]([O-])c1ccccc1NCCNS(=O)(=O)c1ccc(Cl)cc1 | 4.23% |
| COc1cc(/C=C2\SC(=O)NC2=O)ccc1Oc1cnccn1 | 2.14% |
| COc1cccc2cc(NC(=O)C3CCCCC3)c(=O)oc12 | 11.6% |
| CCOC(=O)C1=C(C)NC(=O)C(C(N)=O)C1c1ccccc1 (stereo not drawn) | 5.2% |
| Cc1ccc(N2C(=O)[C@@H]3[C@H](C2=O)C2CCCN2[C@@H]3C(=O)c2ccccc2)cc1 (stereo partly drawn) | 4.45% |
| COc1cccc(Oc2nc(-c3ccncc3)nc3ccccc23)c1 | 16.6% |
| CCCOc1ccc(C(F)(F)F)cc1NC(=O)CN1C(=O)C(=O)N(CC)C1=O | 3.86% |
| CN1C(=O)N(C)C2(CC1(C)C)CC(C)(C)N(C)C(=O)N2C | 5.38% |
| CC(=O)c1cccc(NC(=O)CCN2C(=O)C3CC=CCC3C2=O)c1 (stereo not drawn) | 5.49% |
| O=C(Cn1c(=O)c2sccc2n(Cc2ccc([N+](=O)[O-])cc2)c1=O)NCCc1ccccc1 | -49% |
| CCC(=O)Nc1ccc(C(=O)CSc2nnc(-c3ccc(O)cc3)n2CC2CCCO2)cc1 (stereo not drawn) | 22.8% |
| COc1ccc(-c2cc(C(=O)O)[nH]n2)cc1OC | 6.47% |
| C/C(=N\NC(=O)c1ccco1)c1cccc2ccccc12 | -13.6% |
| CN1Cc2c(N3CCOCC3)nc3sc(C#N)c(N)c3c2CC1(C)C | -8.57% |
| CN(C)S(=O)(=O)c1cccc(NC(=O)c2n[nH]c(=O)c3ccccc23)c1 | 10.5% |
| O=C(ON=C1CCN(S(=O)(=O)c2ccccc2)CC1)c1ccc(F)cc1 | -13.3% |
| CS(=O)(=O)c1ccc(Cl)c(NC(=O)Cc2ccsc2)c1 | 11.7% |

| Structure (SMILES) | hERG current change (%, negative = inhibition) at 10uM |
| --- | --- |
| COc1ccc(N2C(N)=NC(N)=NC23CCCC3)cc1.Cl | 0.958% |
| C=CCC1CCCCC12NC(=O)N(c1ccccc1)N2 (stereo not drawn) | 0.303% |
| O=C(NCCc1ccccc1)C1CCCN1S(=O)(=O)c1ccc(Cl)cc1 (stereo not drawn) | -2.11% |
| O=c1cc[nH]c(=O)[nH]1 | -23.9% |
| O=C(Nc1ccc(S(=O)(=O)Nc2ccccn2)cc1)c1cccc(Br)c1 | 10.7% |
| Cn1c(=O)c2sccc2n2c(CCCC(=O)NCCc3ccccc3)nnc12 | -4.14% |
| CN(CC(=O)Nc1ccc(F)c(F)c1F)C(=O)C1CCCC1 | 1.05% |
| Cc1ccc(C)c(S(=O)(=O)N2CCCC2CNC(=O)C(=O)NC2CCCC2)c1 (stereo not drawn) | -21.2% |
| COc1ccc(CNC(=O)C23CC4CC(CC(Br)(C4)C2)C3)cc1 | 14.8% |
| CC(C)N1C(=O)C(Cc2nc3ccccc3c(=O)n2-c2ccccc2)c2ccccc21 (stereo not drawn) | -8.99% |
| COc1ccc(OC)c(C(=O)CN2CCN(S(=O)(=O)c3ccc(Br)cc3)CC2)c1 | -27.4% |
| O=C(NCc1ccc(Cl)cc1)C(=O)NCC(c1cccnc1)N1CCN(c2ccc(F)cc2)CC1 (stereo not drawn) | -45.5% |
| Cc1cc(N)ccc1-n1c(C)ccc1C | 6.19% |
| CCOC(=O)c1c(C)[nH]c(C(=O)Cn2c(=O)oc3ccccc32)c1C | 2.05% |
| CC(=O)OCCc1[nH]c2ccccc2c1C | 12.3% |
| O=C(NCc1ccccc1Cl)c1ccc2c(c1)OCO2 | 5.02% |
| Cc1nnc(SCC(=O)NC(=O)NC(C)C)s1 | 15.8% |
| CCOc1cc(/C=N/n2c(C)nc3ccccc3c2=O)ccc1O | 23.6% |
| COc1ccc(NC(=O)CN(C)C(=O)c2ccc(NS(=O)(=O)c3ccc(F)cc3)cc2)cc1 | 11.8% |
| COc1ccc(CC(=O)Nc2ccc(NC(=O)c3ccccc3F)cc2)cc1 | 24.6% |
| Cc1nc(NC(=O)COC(=O)C(C)NC(=O)c2ccccc2)c(Cl)cc1Cl (stereo not drawn) | -9.81% |
| CCC(C)N(CCNC(=O)c1ccc2c(c1)NC(=O)c1ccccc1S2)C1CCCCC1 (stereo not drawn) | -66.4% |

| Structure (SMILES) | hERG current change (%, negative = inhibition) at 10uM |
| --- | --- |
| O=C(O)c1[nH]c2ccc(Cl)cc2c1CCN1C(=O)c2ccccc2C1=O | -1.64% |
| CCN(CC)CCCNc1nc(-c2ccccc2)nc2ccccc12.Cl | -61.4% |
| Cc1ccc(NC(=O)c2cncc(Br)c2)cc1S(=O)(=O)N(C)C | 18.6% |
| NS(=O)(=O)c1ccc(N/N=C/c2ccc(O)cc2O)c([N+](=O)[O-])c1 | 6.29% |
| Cc1cc(NS(=O)(=O)c2ccc(NC(=O)/C=C/c3ccc(C)o3)cc2)nc(C)n1 | 13.5% |
| CCn1nnc2cc(C(=O)N(CCOC)CC(=O)Nc3cccc(C)c3C)ccc21 | -11.7% |
| O=C(CCN1C(=O)S/C(=C\c2ccccc2)C1=O)NCCCn1ccnc1 | -38.4% |
| COc1cc(/C=C2\SC(=S)N(CC(=O)Nc3ccccn3)C2=O)cc(OC)c1OC | 3.36% |
| CS(=O)(=O)c1nc(-c2ccccc2)cc(C(F)(F)F)n1 | -37.6% |
| O=P(Nc1ccccc1)(Oc1ccccc1)Oc1ccccc1 | 17.2% |
| CCOC(=O)c1sc(NC(=O)c2sc(C)nc2C)nc1C | -4.49% |
| O=C(C1=C[C@H](c2ccc(Br)cc2)C[C@H](OCCCCO)O1)N1CCN(Cc2ccccc2)CC1 | -80.8% |
| CN1CCN(C(=S)NC(=O)c2ccc(C(C)(C)C)cc2)CC1 | 5.45% |
| CCn1c(C)cc2c(c1=O)C(c1ccccc1)C(C(=O)OC)=C(N)O2 (stereo not drawn) | 26.6% |
| COC(=O)Cc1ccc2c3ccccc3n(C)c2c1 | -4% |
| CCOC(=O)c1csc(NC(=O)c2ccc(C#N)cc2)n1 | 2.92% |
| COc1ccc2[nH]c3c(c2c1)CCN1C(=O)N([C@@H](C)C(=O)NC2CC2)C(=O)[C@]31C | -4.21% |
| COc1ccc2c(c1OC)C(=O)OC2C1c2cc3c(cc2CCN1C)OCO3 (stereo not drawn) | 6.25% |
| COc1ccc(C2c3c(ccc4ccccc34)Oc3ncn4nc(-c5ccco5)nc4c32)cc1OC (stereo not drawn) | -13.4% |
| Cc1c(Cl)c([N+](=O)[O-])nn1CCCC(=O)O | 9.17% |
| Cc1cccc(NC(=O)CCS(=O)(=O)c2cc3c(cc2Cl)NC(=O)CO3)c1 | -12.1% |
| C#CCOCCOCCOCCNc1nc(N2CCN(C(=O)[C@H]([C@@H](C)CC)n3cc([C@@H](N)CO)nn3)CC2)nc(N2CCN(C(=O)[C@H]([C@@H](C)CC)n3cc([C@@H](N)CC(C)C)nn3)CC2)n1.Cl | 7.34% |

| Structure (SMILES) | hERG current change (%, negative = inhibition) at 10uM |
| --- | --- |
| CC(C)[C@H](NC(=O)c1ccc(Cl)c([N+](=O)[O-])c1)C(=O)O | 0.508% |
| Cc1ccc(S(=O)(=O)N2CCN(C(=O)COc3ccc(-c4nnco4)cc3)CC2)cc1 | 3.7% |
| c1ccc2sc(NC3=NCN(CC4CCCO4)CN3)nc2c1 (stereo not drawn) | 11.7% |
| Nn1cnn(Cc2ccccc2)c1=S | 9.91% |
| O=C(CSc1ccc(-c2cccs2)nn1)Nc1ccccc1 | -35% |
| CCC(C)NC(=O)C1CCN(c2nc(OC)nc(OC)n2)CC1 (stereo not drawn) | -4.66% |
| COc1cccc(/C=C2\SC(=S)N(CC3CCCO3)C2=O)c1 (stereo not drawn) | -0.111% |
| CCc1ccc(NC(=O)CSc2nnc(-c3cccs3)n2CC)cc1 | -69.7% |
| C(#CC1CCCCC1)c1ccc2c(c1)COc1c3ccccc3nn1-2 | 7.52% |
| CC(NC(=O)Nc1ccc(Cl)cc1)c1ccc2c(c1)OCO2 (stereo not drawn) | 12% |
| O=[N+]([O-])c1ccc(C2=Nn3cnnc3SC2)cc1 | -62.2% |
| Cc1oc(C(=O)O)cc1COc1ccccc1Cl | 1.13% |
| CCN(CCCNC(=O)C1CCN(S(=O)(=O)CC)CC1)c1cccc(C)c1 | -40.4% |
| CCc1nnc(NS(=O)(=O)c2ccc(NC(=O)/C=C/c3ccc(F)cc3)cc2)s1 | 8.28% |
| N#Cc1nc(-c2cccs2)oc1NCCc1ccccc1 | 3.08% |
| CCN(CC)c1ccc(/C=N\N2CCN(Cc3ccc(C)cc3)CC2)cc1 | -2.72% |
| COc1ccc(CNC(=O)COC(=O)CN2C(=O)C(C)Oc3ccc(C)cc32)cc1 (stereo not drawn) | 1.11% |
| COc1ccc(CN(CC(=O)NC2CCCCC2)C(=O)CCC(=O)Nc2nccs2)cc1 | 12.7% |
| Cc1ccc(CN2CC(=O)N3[C@H]4c5cc(Cl)ccc5OC[C@@H]4[C@H](c4ccccc4)[C@]3(C)C2=O)cc1 | 17.5% |
| Cc1cccc(Cn2nc(C(C)(C)C)cc2C(=O)Nc2ccc(F)cc2)c1 | 14.8% |
| Cn1c(CNC(=O)CNS(=O)(=O)c2ccc(Br)cc2)cc(=O)n(C)c1=O | 1.56% |
